Values joined by “and” are separate entries in the source; they are usually repeats but may differ in a detail not shown here. Identical values can stand only once. Among all 48,000 compounds or so, about 1,200 (2.5%) were called active. Roughly 2% stayed inconclusive and do not appear here.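 Rule for the calls: active = activation of at least 60% and not above a set upper limit (about 1 call in 100 departs from these limits); inconclusive = activation of 40% to 60%, or above that upper limit; inactive = activation under 40%.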 The list shows a part of the results. A structure can be active in one record and inactive in another.
target: Probable G-protein coupled receptor 32 (Homo sapiens) (UniProt O75388); assay: qHTS for Agonists of Human Resolvin D1 Receptor DRV1; conditions: CHO-K1 GPR32 beta-arrestin PathHunter luminescence, 90 min; at 76.9 µM; stronger effect = higher value; zero percent set by DMSO-only wells; note: 0% is about no effect
Sequence of UniProt O75388 (O75388 whole entry, looked up, the tested form may be a part): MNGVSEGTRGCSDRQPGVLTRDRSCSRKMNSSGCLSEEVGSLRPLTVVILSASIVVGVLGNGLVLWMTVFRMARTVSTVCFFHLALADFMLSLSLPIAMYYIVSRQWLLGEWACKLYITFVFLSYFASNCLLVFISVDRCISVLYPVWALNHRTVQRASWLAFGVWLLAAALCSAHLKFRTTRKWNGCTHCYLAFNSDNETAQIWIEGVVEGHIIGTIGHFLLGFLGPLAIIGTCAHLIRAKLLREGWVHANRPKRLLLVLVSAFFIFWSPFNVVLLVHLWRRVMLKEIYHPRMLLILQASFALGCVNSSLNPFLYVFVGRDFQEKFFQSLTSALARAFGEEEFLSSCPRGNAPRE
How it was run: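 Agonism was scored as beta-arrestin recruitment to ProLink-fused GPR32 in stably transfected CHO-K1 cells, giving a chemiluminescent beta-Gal signal; compounds were incubated 90 min at 37 °C.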

**Q.** Which activation does the source give for `Cc1nc2nc(SCC(=O)NC3CCC(C)CC3)nn2c(C)c1Cc1ccccc1Cl` (stereo not drawn) here?
**A.** The activation was inactive: -2.93%.

**Q.** How did the activation turn out when `CCc1ccc2occ(CC(=O)Nc3sc4c(c3C(=O)NCCOC)CCCC4)c2c1` was run?
**A.** The activation was inactive: -0.46%.

**Q.** Which activation does the source give for `N=C(N)c1ccc(OCCCOc2ccc(C(=N)N)cc2)cc1` here?
**A.** The activation was inactive: -16.6%.

**Q.** How did the activation turn out when `Cc1ccc(S(=O)(=O)C(CNC(=O)c2ccc(C(F)(F)F)cc2)c2ccco2)cc1` (stereo not drawn) was run?
**A.** Its activation is inactive: -13%.

**Q.** How did the activation turn out when `CC(N)=NCCCC[C@@H](N)C(=O)O` was run?
**A.** The activation was inactive: -0.194%.

**Q.** How did the activation turn out when `Cc1noc(-c2ccc(-c3noc(-c4cccc(Cl)c4)n3)cc2)n1` was run?
**A.** The activation was inactive: -0.589%.

**Q.** For `Cc1nc2c(-c3ccccc3)c(C)nn2c(C)c1CCC(=O)NCc1ccccc1`, which activation is on record?
**A.** The activation was inactive: 6.8%.

**Q.** For `CCn1cc2nc(SCc3cccc(C)c3)n(CCc3ccccc3)c(=O)c2n1`, which activation is on record?
**A.** The activation was inactive: 2.74%.

**Q.** With `CCOC(=O)c1ccc(NC(=O)CCC(=O)N2CCSc3ccccc32)cc1` as the molecule, how does the activation read?
**A.** Its activation is inactive: -8.67%.

**Q.** `CCc1ccc2oc(-c3ccc(C)c(NC(=O)c4ccc(C#N)cc4F)c3)nc2c1` was tested. Which activation did it give?
**A.** Its activation is inactive: -27.8%.

**Q.** How did the activation turn out when `Cc1ccc(S(=O)(=O)n2nc(-c3ccco3)nc2NCc2ccc(N(C)C)cc2)cc1` was run?
**A.** Its activation is inactive: -35.7%.

**Q.** For `COc1ccc(Nc2ncc(C(=O)N3CCN(c4ccccc4OC)CC3)c3ccccc23)cc1`, which activation is on record?
**A.** The activation was inactive: -13.2%.

**Q.** With `CCOC(=O)c1ccc(NC(=O)CN2C(=O)c3cccnc3Sc3ccccc32)cc1` as the molecule, how does the activation read?
**A.** Its activation is inactive: -5.05%.

**Q.** `CCOc1ccc(C(=O)NCCc2sc(-c3ccc(F)cc3)nc2C)cc1` was tested. Which activation did it give?
**A.** Its activation is inactive: 15.5%.

**Q.** How did the activation turn out when `CO[C@@]1(NC(=O)CSCC#N)C(=O)N2C(C(=O)O)=C(CSc3nnnn3C)CS[C@@H]21` was run?
**A.** Its activation is active: 64% and inactive: 6.25%.

**Q.** Which activation does the source give for `O=C(Cn1ncc2c3ccccc3n(Cc3cccc(Cl)c3)c2c1=O)NCCC1=CCCCC1` here?
**A.** Its activation is inactive: 0.249%.

**Q.** `Cc1ccccc1Cn1c(=O)n(CCCCCC(=O)NCc2ccc3c(c2)OCO3)c(=O)c2sccc21` was tested. Which activation did it give?
**A.** Its activation is inactive: -25.6%.

**Q.** `COc1ccc(NC(=O)CSc2ncc3c(n2)-c2ccccc2N(C)S3(=O)=O)cc1Cl` was tested. Which activation did it give?
**A.** Its activation is inactive: -44.5%.

**Q.** How did the activation turn out when `CCN(CC)c1ccc(CNS(=O)(=O)c2cc3c(cc2C)NC(=O)CO3)cc1` was run?
**A.** The activation was inactive: -8.53%.

**Q.** How did the activation turn out when `Cn1c(SCc2ccccc2Cl)nc(=O)c2c1NC(=O)CC2c1cc(F)ccc1F` (stereo not drawn) was run?
**A.** The activation was inactive: -3.29%.

**Q.** How did the activation turn out when `CCOc1ccc(NC(=O)Nc2c[nH]c(=O)[nH]c2=O)cc1` was run?
**A.** Its activation is inactive: 14.3%.

**Q.** `CCOC(=O)c1ccccc1NC(=O)Cn1c(=O)n(-c2ccc(CC)cc2)c(=O)c2c(C)c(C(=O)N(C)C)sc21` was tested. Which activation did it give?
**A.** Its activation is inactive: -7.87%.

**Q.** `CCOc1ccccc1CNC(=O)c1ccc2c(c1)nc1n2CCC(C)C1` (stereo not drawn) was tested. Which activation did it give?
**A.** The activation was inactive: -3.8%.
